For 14 molecules, binding signal results are on record in article PMC12136788.

The list shows a part of the results.

To fix the notation:
T1: UNK ZnF1-6 (called full-length) (human, UniProt Q9C0B0 30-357)
T1 sequence: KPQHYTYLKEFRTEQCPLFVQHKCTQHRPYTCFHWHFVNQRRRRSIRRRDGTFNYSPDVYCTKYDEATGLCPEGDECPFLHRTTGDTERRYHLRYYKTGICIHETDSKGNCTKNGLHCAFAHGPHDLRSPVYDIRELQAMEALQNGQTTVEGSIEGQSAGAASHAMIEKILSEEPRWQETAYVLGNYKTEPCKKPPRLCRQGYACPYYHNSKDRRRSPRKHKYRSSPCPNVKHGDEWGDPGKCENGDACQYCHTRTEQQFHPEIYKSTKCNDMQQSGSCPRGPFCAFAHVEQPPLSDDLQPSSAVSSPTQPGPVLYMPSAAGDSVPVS

B1: chr19:53069209:53069329:-|CDS|ENSG00000170949|unk|FALSE|unique (ssRNA)
RNA: GGGAGUUCUACAGUCCGACGAUCUGGAGAGAAACCUUACAAGUGCAAUGAGUGCGGCAAAGCCUUUAGUGUUCGUUCAAGCCUAGCAAUCCAUCAGACAAUCCACACUGGAGAAAAACCUUACAAAUGUAAUGAAUGUGGCAACAACAGAGGAUUGAGCAUCA
B2: ENSG00000107863:be:win_3501|CDS|ENSG00000107863|bound_else_gene|NA|bound_elsewhere_windowed (ssRNA)
RNA: GGGAGUUCUACAGUCCGACGAUCAUGUUGCAAAUUAGUUGAAGAAAGAGGUCUUGAAUAUACAGGUAUUUAUAGAGUUCCUGGAAAUAAUGCAGCCAUCUCAAGUAUGCAAGAAGAACUCAACAAGGGAAUGGCUGAUAUUGACAACAGAGGAUUGAGCAUCA
B3: chr7:92618090:92618217:-|CDS|ENSG00000105810|unk|total|mutant (ssRNA)
RNA: GGGAGUUCUACAGUCCGACGAUCUAUGUCCAUGUGUGGUUCUUUUGCCGCGUGAUUGGACUCCCAGGAGAAGAAGACUGGCCCCGAGAUGUUGCCCUUCCCAGGCAGGCUUUUCAUUCAAAAUCUGCCCAACCAAUUGAGAAGCAACAGAGGAUUGAGCAUCA
B4: chr1:235182574:235182675:-|CDS|ENSG00000054267|unk|FALSE|unique (ssRNA)
RNA: GGGAGUUCUACAGUCCGACGAUCUUUGACCAACAACAGAAAUGAUCUUAUUUCAAAGGAGGAACAGAACAGUUCAUCUUUGCUAGAAGAAAACAAAGUUCAUGCAGAUUUGGUAAUAUCCAAACCAGUGUCAAAAUCUCCAGACAACAGAGGAUUGAGCAUCA
B5: chr7:158734047:158734148:-|3pUTR|ENSG00000117868|msi1_unk|total|mutant (ssRNA)
RNA: GGGAGUUCUACAGUCCGACGAUCCUACCCGGAACACACCCUCUCACAGACGUACCAAUGUUAUUUUUAUAAUUUCAUGGAUUCCGUUAUACAUACCUUAACCGUUUUAUAAAAUUGUUGACAUUUCAGGCAAAUUUGGCCAAUCAACAGAGGAUUGAGCAUCA
B6: chr6:136999970:137001557:-|three_prime_utr|ENSG00000016402|control|control|control (ssRNA)
RNA: GGGAGUUCUACAGUCCGACGAUCAAGUUUUUUCCAGUUUGUCAGUGUCUGUGAGAAUUACUUAUUUCUUUUCUCUAUUCUCAUAGCACGUGUGUGAUUGGUUCAUGCAUGUAGGUCUCUUAACAAUGAUGGUGGGCCUCUGGACAACAGAGGAUUGAGCAUCA
B7: chr1:17067826:17067927:-|3pUTR|ENSG00000117115|msi1|total|mutant (ssRNA)
RNA: GGGAGUUCUACAGUCCGACGAUCCCAGAUUCAUUCCCUGGCUCCAACUGAAAAGACUCAGUUUCAAUCGUUAAAAGUUCCUUCCGGGCCAGAAGAAUAAAUGAAUUAUAAUCCCAUUUUGAAGAACCGAUUUAUAACCAAUGACAACAGAGGAUUGAGCAUCA
B8: chr3:50299934:50300035:-|3pUTR|ENSG00000114378|unk|FALSE|unique (ssRNA)
RNA: GGGAGUUCUACAGUCCGACGAUCCGUUGCCCAAGGUUGCACAGCAAGAAAAGGGAGAAGUUGAGAUUCAAACCCAGGCUGUCUAGCUCCGGGGGUACAGCCCUUGCACUCCUACUGAGUUUGUGGUAACCAGCCCUGCACGACCAACAGAGGAUUGAGCAUCA
B9: ENSG00000107863:be:win_3301|CDS|ENSG00000107863|bound_else_gene|NA|bound_elsewhere_windowed (ssRNA)
RNA: GGGAGUUCUACAGUCCGACGAUCAAGGAAGAGUCGGAAAGGAAACUUCUCAGUAAAGAUGAUACCAGUCCCCCAAAAGACAAAGGCACAUGGAGAAAAGGCAUUCCAAGUAUCAUGAGAAAGACAUUUGAGAAAAAGCCAACUCAACAGAGGAUUGAGCAUCA
B10: ENSG00000124766:be:win_1501|3pUTR|ENSG00000124766|bound_else_gene|NA|bound_elsewhere_windowed (ssRNA)
RNA: GGGAGUUCUACAGUCCGACGAUCGACAGACGAAGAGUUUAAAGAGAAAAGGGAAAAAAGAAAGAAAAAGUAAGCAGGGCUGGCUUCGCCCGCGUUCUCGUCGUCGGAUCAAGGAGCGCGGCGGCGUUUUGGACCCGCGCUCCCCAACAGAGGAUUGAGCAUCA
B11: chr20:59938049:59938150:-|3pUTR|ENSG00000132825|unk|FALSE|unique (ssRNA)
RNA: GGGAGUUCUACAGUCCGACGAUCAAGUUUGAAACUAAGCAUUUUAAGAAGUCUUGCCUCAGUUAUUUCAGUUUUCAGGUGACUAGAGAAUUUCAGGCAACAGUGCCCUUUGCAAUUACCUUUUUGAUGAUUAAGGUGACUAUUCAACAGAGGAUUGAGCAUCA
B12: chr17:81509976:81510077:-|3pUTR|ENSG00000184009|msi1|total|mutant (ssRNA)
RNA: GGGAGUUCUACAGUCCGACGAUCUCUCGAUUCUUUGAAGAGAUGACAACAAAUUUUGGUUUUCUACUGUUAUGUGAGAACAUCCGGCCCCAGCAACACGUCAUUGUGUAAGGAAAAAUAAAAGUGCUGCCGUAACCAAUGAAUCAACAGAGGAUUGAGCAUCA
B13: chrX:30854639:30854752:-|CDS|ENSG00000157625|unk|FALSE|bound_elsewhere (ssRNA)
RNA: GGGAGUUCUACAGUCCGACGAUCUUCAGCUCUCCACAGCAUCAAGUGCAACCUUCCCAGUUGGGCCACAUCUUUAUGCCACCUAGUCCUUCAACUACUCCACCCCAUCCAUAUCAACAAGGACCUCCUAGCUAUCAGAAACAGCAACAGAGGAUUGAGCAUCA
B14: chr12:6965580:6965681:-|3pUTR|ENSG00000215021|unk|total|mutant (ssRNA)
RNA: GGGAGUUCUACAGUCCGACGAUCGUCAUUAUCUAUCUUUUUUUUCCUACAGUGACAGCCUCAUCAAGGGUAAGAAAUGAGCCCCGUCACCAAGAACUCCACCCCCAGAGGAAGUGGAUCUGCUUCUCCAGUUUUUGAGGAGCCCAACAGAGGAUUGAGCAUCA

For the test, the target named is T1, UNK ZnF1-6 (called full-length). Kind of test: nsRBNS (natural sequence RNA bind-n-seq); RBNS binding buffer (assumed for nsRBNS): 25 mM Tris pH 7.5, 150 mM KCl, 3 mM MgCl2, 0.01% Triton X-100, 500 ug/ml BSA, 20 U/ml SUPERase-In, 4 C; UNK is unkempt and MSI1 is Musashi-1; names of the RNAs are library labels; protein concentration not given here; high values mean tight binding.
In turn, B1 yielded a binding signal of 0.653 enrichment R.
For B2 the value was 0.818 enrichment R; for B3, 1.26 enrichment R.
In the case of B4, the binding signal was determined as 0.258 enrichment R.
Consider B5, for which the binding signal came out at 0.624 enrichment R.
In the case of B6, the binding signal was determined as 0.961 enrichment R.
For the molecule B7, the binding signal is 0.465 enrichment R.
The molecule B8 returned a binding signal of 0.571 enrichment R.
Molecule B9 gave a binding signal of 0.363 enrichment R.
Consider B10, for which the binding signal is 0.93 enrichment R.
For B11 the value was 0.42 enrichment R; for B12, 0.274 enrichment R; for B13, 1.55 enrichment R.
In turn, B14 displayed a binding signal of 1.61 enrichment R.
